This is one part of the list. No stated cut-off is given here; in the data, active = 3.2 or more and inactive = the rest. Only a few entries rise above the background.
B1: HBB_Y131_Y131D (peptide)
chain: PVQAADQKVVA
B2: HBB_Y131_Y131S (peptide)
chain: PVQAASQKVVA
B3: HBB_Y146_A141V (peptide)
chain: VLAHKYHGGGG
B4: HBB_Y146_H144R (peptide)
chain: ALARKYHGGGG
B5: HBB_Y146_Y146C (peptide)
chain: ALAHKCHGGGG
B6: HBB_Y36_L33R (peptide)
chain: RLRVVYPWTQR
B7: HBB_Y36_W38R (peptide)
chain: RLLVVYPRTQR
B8: HCK_Y411 (peptide)
chain: IEDNEYTAREG
B9: HCLS1_Y360 (peptide)
chain: EEEPVYEAEPE
B10: HCN1_Y417 (peptide)
chain: KQVEQYMSFHK
B11: HCN1_Y417_V414M (peptide)
chain: KQMEQYMSFHK
B12: HDAC3_Y414 (peptide)
chain: APNEFYDGDHD
B13: HELZ2_Y1304 (peptide)
chain: ILGLEYSLRVP
B14: HEMGN_Y150 (peptide)
chain: ENFSEYQEIAV
B15: HGD_Y166 (peptide)
chain: GNLLIYTEFGK
B16: HGD_Y166_E168D (peptide)
chain: GNLLIYTDFGK
B17: HGD_Y166_F169L (peptide)
chain: GNLLIYTELGK
B18: HGD_Y166_K171N (peptide)
chain: GNLLIYTEFGN
B19: HGD_Y333_YF (peptide)
chain: TFRPPYFHRNC

Target: SHP2 C-SH2 domain E139D
Experiment: enrichment score (SH2-bound / input frequency) (ratio); bacterial display of known human phosphotyrosine sites (pTyr-Var adds point mutants) read by sequencing; higher = stronger binding; tyrosines were phosphorylated by kinases first
Conditions: peptide library: pTyr-Var
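Further: displayed peptides selected on beads carrying the immobilized SH2 domain, with library peptides lacking any tyrosine serving as negative controls.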

Enrichment score, inactive:
B1 0.412, B2 0.619, B3 0.589, B4 0.606, B5 1.41, B6 0.218, B7 0.154, B8 0.496, B9 0.418, B10 0.932, B11 0.894, B12 0.4, B13 1.43, B14 0.74, B15 1.46, B16 1.12, B17 1.36, B18 1.14, B19 2.04

Target: SHP2 C-SH2 domain wild-type
Experiment: as above
Conditions: peptide library: pTyr-Var

Enrichment score, inactive:
B1 0.58, B2 0.753, B3 0.645, B4 0.474, B5 1.31, B6 0.238, B7 0.155, B8 0.401, B9 0.748, B10 1.01, B11 0.741, B12 0.6, B13 1.38, B14 0.677, B15 1.13, B16 1.25, B17 1.05, B18 1.29, B19 1.73

Target: SHP2 N-SH2 domain L43F
Experiment: as above
Conditions: peptide library: pTyr-Var

Enrichment score, inactive:
B1 0.449, B2 0.785, B3 0.567, B4 0.483, B5 1.31, B6 0.214, B7 0.27, B8 0.643, B9 0.509, B10 0.923, B11 1.14, B12 0.463, B13 1.23, B14 0.686, B15 1.24, B16 1.05, B17 0.945, B18 1.11, B19 2.2

Target: SHP2 N-SH2 domain T42A
Experiment: as above
Conditions: peptide library: pTyr-Var

Enrichment score, inactive:
B1 0.425, B2 0.614, B3 0.592, B4 0.457, B5 0.977, B6 0.298, B7 0.31, B8 0.452, B9 0.503, B10 0.77, B11 0.897, B12 0.485, B13 1.21, B14 0.478, B15 0.991, B16 0.979, B17 0.98, B18 0.979, B19 1.68

Target: SHP2 N-SH2 domain T52S
Experiment: as above
Conditions: peptide library: pTyr-Var

Enrichment score, inactive:
B1 0.616, B2 0.922, B3 0.594, B4 0.532, B5 1.2, B6 0.238, B7 0.201, B8 0.462, B9 0.413, B10 0.755, B11 0.634, B12 0.372, B13 1.29, B14 0.715, B15 1.07, B16 0.813, B17 0.957, B18 1.13, B19 1.94

Target: SHP2 N-SH2 domain wild-type
Experiment: as above
Conditions: peptide library: pTyr-Var

Enrichment score, inactive:
B1 0.556, B2 0.698, B3 0.523, B4 0.589, B5 1.13, B6 0.189, B7 0.192, B8 0.762, B9 0.819, B10 0.908, B11 1.02, B12 0.436, B13 1.37, B14 0.744, B15 1.4, B16 1.47, B17 1.28, B18 1.25, B19 1.3
